# In all, about 150,000 compounds went through this assay and about 540 (0.36%) showed an effect of 50% or more. Some of the results follow.
# Tested on: Plasmodium falciparum
# Experiment: Primary screen in NF54 nanoGlo assay, in single point, at 2uM, 72h; a lower Z score goes with more inhibition
# Format: functional, Erythrocyte
# Conditions: timepoint 72 hour
Compound,% Inhibition [%],Z score
COc1cccn(CC(=O)N(C)[C@@H](C)c2ccon2)c1=O,1,-0.09
Cc1ccc2c(c1)C(c1ccccc1)=NNC(c1ccccc1)=N2,-8,1.03
O=C(CCc1ccccc1)Nc1ccc2c(c1)C(=O)N(C1CCCCC1)C2=O,-8,0.93
Cc1cnc([C@H]2CCN(C(=O)C(C)C)C2)n1Cc1ccc(F)cc1,-9,1.41
Cn1ncnc1CCNC(=O)c1ccc(C#N)nc1,-15,1.96
COC(=O)N[C@@H](CC(C)C)C(=O)Nc1cc(OC)ccc1Cl,-7,0.68
CCCN(C[C@H]1CCCCO1)c1nc(C)nc2c1cnn2C,-9,0.97
CC[C@H](C)N(CC(=O)N(Cc1ccccc1)Cc1cccs1)C(=O)c1cccc(Cl)c1,0,0.02
O=C(O)Cn1cc(NC(=O)c2cc3c(s2)CCCC3)cn1,-12,2.24
COc1ccc2ccc(O)c(CN3CCCc4cc(S(=O)(=O)N5CCCC5)ccc43)c2c1,-3,0.54
CCN(CC)CCNC(=O)c1c(CC2CCCC2)n(CCOC)c(C)cc1=O,-1,0.28
CCOc1ccc(N2CC(C(=O)N3CC(C(=O)OC)Oc4ccccc43)CC2=O)cc1 (centres undefined),3,-0.3
CCc1nnc(CN(C)C(=O)c2cnc(-c3ccc(C)cc3)nc2O)o1,-8,1.47
Cc1nc[nH]c1-c1cc(-c2ccc(O)cc2F)nc(N)c1C#N,-13,1.89
O=C(OCc1ccccc1)N1CCC(S(=O)(=O)NC2CCCN(c3ncccn3)C2)C1 (centres undefined),-12,1.25
Cc1c(CN2CC[C@H](CNC(=O)C3CCC3)C2)[nH]c2ccc(F)cc12,-8,1.75
CCCN1C[C@@H]2Oc3cc(-c4cccnc4)ccc3S(=O)(=O)NC[C@H](O)CN(C)[C@@H]2C1,-6,0.72
CC(=O)c1ccc(-c2ccc3nc(-c4ccc(C)cc4)c(CCC(=O)NC4CC4)n3c2)cc1,8,-1.23
Cc1ccc(CN2CC(Cc3ccccc3Cl)C2)o1,-14,1.41
O=C(Nc1ccc(-n2cnnn2)cc1)N1CC[C@@H]1Cc1ccccc1,-5,1.07
COc1cccc([C@@H](C)NC(=O)CCc2c(C)nc(O)nc2C)c1,-21,2.03
CC(C)(C)CN(CCCO)C(=O)NCCCn1ccnc1,-12,1.17

Compound,% Inhibition [%],Z score
Cc1ccc(C(=O)N2[C@H](C(=O)NCc3ccccn3)COC23CCN(C(=O)c2cccs2)CC3)cc1,-16,1.88
C[C@H]1OCC[C@H]1NC(=O)c1c[nH]nc1-c1cccnc1,1,-0.21
O=S(=O)(CCc1ccccc1)N1CCC(n2nccn2)CC1,-3,0.29
O=c1sc2ccccc2n1COc1ccc(Cl)cc1,6,-1.09
CC(C)c1ccc(C(=O)N2CCC([C@H]3CCNC3)CC2)cc1,0,-0.02
CO[C@@H](C(=O)N1CC[S+]([O-])CC1)c1ccccc1,-12,2.27
Cc1cscc1NC(=O)N[C@@H](C)Cc1cccnc1,5,-0.5
CN(Cc1ccc(F)cc1)[C@H]1CCN(CC(F)(F)F)C1=O,11,-1.47
CC[C@H](Oc1ccc(F)cc1)C(=O)N(Cc1cccc(F)c1)c1ccccn1,9,-1.52
CC(C)(C)NS(=O)(=O)Nc1ccccc1,-7,0.96
CC(CN1CCOCC1)N1CCN(C(C#N)c2ccccc2)CC1 (centres undefined),-8,0.73
CN(CCn1cccn1)CCn1ccc2ccccc21,-15,2.15
CC(C)Cc1nc(CNC(=O)c2csc(N)n2)no1,-11,1.8
CC(C)C(=O)N1CCc2c(c(-c3nncn3C(C)C)nn2C)C1,-12,2.21
O=C(C1CCC1(F)F)N1CCCCCC(Nc2ccc(C(F)(F)F)nn2)C1 (centres undefined),9,-1.08
CCC1(CC)CN(C(=O)NCc2ccn(C(C)C)n2)C1,2,-0.4
CC(=O)[C@@H]1C[C@H](c2nc(-c3cccc(CN4CCCC4=O)c3)no2)C1(C)C,6,-0.7
CC1(O)CN(C(=O)Nc2ccccn2)C1,2,-0.27
Cc1cc(C(=O)N[C@@H]2CN(c3ncccn3)C[C@H]2CO)c(C)o1,1,-0.13
Cc1[nH]cnc1CNC(=O)[C@H]1CC12CCCCC2,-6,1.24
CN(CCc1nc(-c2ccccc2)no1)Cc1ccccc1Cl,3,-0.42
O=C(Nc1cccnc1)N1CCN(Cc2ccc3c(c2)OCO3)CC1,-12,1.89

Compound,% Inhibition [%],Z score
Cc1cc(CCNC(=O)c2ccc(Cl)s2)on1,-13,2.07
O=C(c1ccc2ncsc2c1)N1CCC[C@H]1c1nc2ccccc2s1,19,-2.16
CCONC(=O)C(=O)Nc1c(F)c(F)c(F)c(F)c1F,-10,1.22
Cc1c(F)cccc1NC(=O)N(C)CC1CCOCC1,-3,0.51
C#CCCC1(CCC(=O)N2CCCC[C@@H]2COC)N=N1,-11,1.33
Cc1c(C(=O)NCc2nc(C(N)=O)no2)ccn1C,6,-1.1
Cc1cc(C(=O)Nc2ccc(N3CCCC3=O)cn2)nn1-c1ccc(F)cc1,-3,0.37
COc1ccccc1[C@H](C)NC(=O)c1cccn1C1CCNCC1,-4,0.62
CN(C)C[C@H]1O[C@@H](CO)[C@@H](O)[C@@H]1N(C)Cc1ccccc1,-14,1.75
CCCOc1ccc2c(c1)OCC(C(=O)N1CCN(CCOC(C)C)CC1)=C2,-4,0.59
CCC(C)C(=O)NCCc1ccnc(NC(=O)C(C)CC)c1 (centres undefined),7,-1.3
COCCn1ccnc1-c1nc2cc(C(C)(C)C)ccc2[nH]1,-14,1.88
Cc1cc(N2C(=O)CCS2(=O)=O)ccc1S(=O)(=O)NC1CCCC1,33,-1.32
CCC1CN(c2nnnn2C2CC(C)OC(C)C2)CC(CC)O1 (centres undefined),1,-0.15
CCc1nccn1C(C)CC(=O)N1CCNC(Cc2ccccc2)C1 (centres undefined),-11,1.17
O=C(Cc1cccs1)NCc1cnn2c1CCCC2,8,-1.23
COCc1cccc(C(=O)N2CCCCC[C@H]2c2noc(-c3cnn(C)c3)n2)c1,-4,0.5
Nc1cc(Br)c(C(F)(F)F)cc1NC(=O)C(F)(F)F,36,-4.67
CCOc1cc(CN2CC[C@H](c3ccc(F)cc3)[C@@H](O)C2)ccc1O,14,-1.79
COCCn1cc(NC(=O)Nc2cnn(CC(F)F)c2)cn1,-16,1.61
CCN1CCN(S(=O)(=O)c2cc(-c3ccc(=O)[nH]n3)cc(C)c2C)CC1,-2,0.26
O=C(COc1ccccc1)Nc1cc(-n2cncn2)ncn1,-16,2.75

Compound,% Inhibition [%],Z score
Cc1ccc(-c2noc([C@@H]3CCCCN3)n2)cc1,31,-3.54
Cc1cccc(NC(=O)CCC(=O)OCC(F)(F)C(F)F)c1C,37,-5.37
C[C@@H](CNC(=O)c1cnc(Cc2c(Cl)cccc2Cl)nc1O)n1ccnc1,-4,0.62
Cc1ccc(OC2Cc3ccccc3C2)nn1,-7,1.06
O=C(O)c1nc2ccccc2nc1C1CC1,2,-0.22
FCC(CF)NCc1cn(C2CCCC2)nc1-c1ccccn1,-12,1.88
O=C(NOC1CCCCO1)C1CC12CCOCC2 (centres undefined),-10,1.04
O=C(NC[C@H]1Cc2ccccc2CO1)Nc1cccs1,-12,2.01
Cc1nccn1CCNC(=O)C(=O)NC(C)(C)C,-18,2.66
Cc1cc(F)cc(NC(=O)NO[C@@H]2CCCCO2)c1,4,-0.45
CN(CC1CC1)c1nnc([C@H]2CCCO2)n1Cc1cccs1,-7,1.32
CCOc1ccc(C(=O)N2CC[C@H](n3cnnc3CC)C2)cc1OCC,-10,1.66
CN1C(=O)C[C@H](C(=O)NCCc2cc[nH]n2)C1(C)C,-8,1.36
CCCCOCC(=O)NCc1nc2ccccn2c1Cl,-3,0.39
CCC[C@@H](CNC(=O)c1sccc1Cl)N(C)C,-11,1.68
Cc1n[nH]c(C)c1CC(=O)N1CCCC(C)C1C(=O)OC(C)(C)C (centres undefined),-5,0.63
COc1cccc(-c2nc3ccc(C(=O)N[C@H]4CCOC(C)(C)C4)cc3o2)c1,-5,0.6
COc1ccc(Br)cc1CN1CCN(Cc2cccn2C)CC1,-11,1.45
Cc1nc(-c2cccc(C(F)(F)F)c2)c(N)c(N2CCOCC2)n1,9,-1.2
Cc1ccc2[nH]cc(-c3ccc(CS(C)(=O)=O)cn3)c2c1,-15,1.94
Cc1ccc(C/N=C2\C(c3ccc(N(C)C)cc3)=Nc3ncnn32)cc1,-2,0.25
